Out of some 45,000 compounds screened, about 65 (0.1%) were called active. The call rests on the fitted dose curve; in most records, active means well fitted activation curve with a large enough effect; inconclusive means small, poorly fitted or top-dose-only effect; inactive means no such curve, though single readings can be large or run the other way. Some of the results follow.
biological target: Galactocerebrosidase (Homo sapiens) (UniProt P54803); experiment: A Novel Cell-Based Assay to Identify Small Molecules for B -Galactocerebrosidase; conditions: 145M-Twi-hGALC-G270D cells (Twitcher mouse brain line with human GALC G270D), HMU-beta-Gal fluorescence, 48 h; series mostly up to 57.5 µM; activation: at the top concentration; further: 0% is about no effect; nearly all actives have a fitted effect of over 65% in size
In short: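 Mutant human GALC (G270D), stably expressed in a Twitcher mouse brain cell line lacking endogenous GALC, is measured in live-treated cells via 6-hexadecanoylamino-4-methylumbelliferyl-β-galactoside hydrolysis (0.1 mM final, pH 5.2) with fluorescent detection.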

UniProt P54803, sequence (P54803 whole entry, looked up): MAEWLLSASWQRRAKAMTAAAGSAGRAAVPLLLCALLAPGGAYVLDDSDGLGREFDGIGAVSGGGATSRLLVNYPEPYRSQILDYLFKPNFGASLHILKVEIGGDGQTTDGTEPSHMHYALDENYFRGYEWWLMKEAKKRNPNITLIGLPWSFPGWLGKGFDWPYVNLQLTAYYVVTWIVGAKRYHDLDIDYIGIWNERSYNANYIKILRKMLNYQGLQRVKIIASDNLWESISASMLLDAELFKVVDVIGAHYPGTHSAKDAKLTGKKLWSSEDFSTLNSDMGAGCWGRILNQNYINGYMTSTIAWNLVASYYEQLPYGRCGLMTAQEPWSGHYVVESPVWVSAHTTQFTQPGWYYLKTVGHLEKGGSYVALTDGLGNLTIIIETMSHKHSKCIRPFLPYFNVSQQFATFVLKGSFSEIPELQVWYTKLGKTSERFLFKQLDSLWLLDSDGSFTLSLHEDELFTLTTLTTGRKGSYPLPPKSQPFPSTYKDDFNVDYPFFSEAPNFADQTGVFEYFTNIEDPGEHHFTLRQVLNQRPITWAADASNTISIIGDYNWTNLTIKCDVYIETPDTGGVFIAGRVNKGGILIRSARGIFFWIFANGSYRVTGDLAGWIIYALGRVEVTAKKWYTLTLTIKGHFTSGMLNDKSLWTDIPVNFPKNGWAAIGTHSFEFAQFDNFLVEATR

activation, inactive:
CCc1nnc(SCc2nc(-c3ccccc3)oc2C)c2cc3sccc3n12 -43.4%, CCc1ccc(CNC(=O)Cc2c(C(=O)O)c(C)cn2C)cc1 -5.59%, COc1ccc(C(=O)Nc2ccc(C(=O)OCc3cc(=O)n4nc(C(C)C)sc4n3)cc2)cc1 -10.3%, Cc1ccc(Cl)cc1NC(=O)/C(C#N)=C\c1cn(Cc2ccc(F)cc2)c2ccccc12 -21.6%, C[N+](C)(C)CCCCCC[N+](C)(C)C -9.48%, Fc1ccc(CNc2cc(-c3ccccc3)nc3nncn23)cc1 5.23%, Cc1ccccc1C(=O)Nc1ccc2nc(SCCOc3ccccc3)sc2c1 -2.56%, CCOC(=O)c1c(S(=O)(=O)NCC(=O)NCc2ccc(C)cc2)c(C)n(C)c1C -6.13%, COc1ccc(OC)c(NC(=O)C(CCSC)NS(=O)(=O)c2cccs2)c1 (stereo not given) -9.83%, Nc1c(C(=O)Nc2ccc(Cl)cc2F)sc2nc(-c3cccs3)ccc12 -8.41%, COc1ccc(-c2nc(SCC(=O)N3CCC(C)CC3)n[nH]2)cc1 -4.63%, COc1ccc(NC(=O)C(CC(C)C)NS(=O)(=O)c2ccc3c(c2)oc(=O)n3C)cc1Cl (stereo not given) -12.9%, COc1cccc(C2Nc3ccccc3-c3nnc(SCc4ccccc4)nc3O2)c1OC (stereo not given) -16.4%, O=C(Nc1ccc(F)c(Cl)c1)C1CCCN1S(=O)(=O)c1ccc(F)cc1 (stereo not given) -11.1%, Cc1ccc(S(=O)(=O)c2nc(-c3ccccc3)oc2SCC(=O)NC2CCCCC2)cc1 -4.15%, O=C(Cn1c(=O)ccc2cc(S(=O)(=O)N3CCCC3)ccc21)NCc1ccc(F)cc1 -22.5%, COc1ccc(N(CC(=O)N2CCN(c3cccc(OC)c3)CC2)S(=O)(=O)c2c(C)noc2C)cc1 -6.82%, CCOC(=O)C1=C(CS(=O)(=O)c2ccc(C)c(C)c2)NC(=O)NC1c1ccccc1OCC (stereo not given) -5.03%, CCOc1ccc(NC(=O)Cn2c(=O)n(Cc3nc(-c4ccccc4)no3)c(=O)c3ccccc32)cc1 -9.77%, CN1C(=O)c2ccccc2Sc2ccc(NC(=O)COc3ccc(Cl)cc3)cc21 -4.81%, COCCNc1ccc(-c2nc(-c3cccc(C)c3)no2)cc1[N+](=O)[O-] -17.4%, CN1C(C)(C)CCCC1(C)C -1.46%, Cn1c(-n2cccc2)c(-c2c(-c3ccc(F)cc3)[nH]c3c2c(=O)[nH]c(=O)n3C)c(=O)[nH]c1=O 6.43%, CC1CCCN(C(=O)Cn2c(=O)n(CC3CCC(C(=O)NC(C)C)CC3)c(=O)c3sccc32)C1 (stereo not given) -20.4%, COc1cc(OC)c(NC(=O)c2ccc3c(Cl)c4c(nc3c2)CCCC4)cc1Cl -7.54%, COc1ccc(CCNC(=O)CSCc2nc(-c3ccc(OC)c(OC)c3)oc2C)cc1OC -17.7%, COc1cccc(OC)c1Cn1nnc2c(=O)[nH]c(C3CCN(C(=O)c4ccccc4)CC3)nc21 -11%, COc1ccc(-n2ncc3c2ncn2nc(-c4ccc(Cl)cc4Cl)nc32)cc1 -17.7%, Cc1ccc(NC(=O)c2ccc(F)c(S(=O)(=O)N3CCc4ccccc4C3)c2)cc1F -19.4%, Cc1ccc(-n2c(SCC(=O)N3CCC(C)CC3)nc3c([nH]c4ccccc43)c2=O)cc1 -11.2%, COc1cccc(-c2ccnc3[nH]n(-c4ccccc4)c(=O)c23)c1 2.48%, COc1ccc(Cl)cc1NC(=O)CSc1cn(CC(=O)N2CCCC2)c2ccccc12 -9.72%, Cc1cc(NC(=O)CN2C(=O)CSc3ccc(S(=O)(=O)N(C)C)cc32)ccc1Br -16.2%, CSc1ccc(CCNC(=O)c2ccc3c(c2)nc2n3CCOC2)cc1 1.96%, CC1(C)Oc2ccc(C#N)cc2[C@@H](N2CCCC2=O)[C@@H]1O -8.55%, CCOC(=O)c1c(NC(=O)c2nc(SC)ncc2Cl)sc(C)c1C -19.2%, CCOC(=O)c1ccc(NC(=O)CN2C(=O)CC(c3ccc(C)c(C)c3)=Nc3ccccc32)cc1 -20.5%, Cc1c(Cl)cccc1NC(=O)NCCOCCn1c(=O)oc2ccccc21 -3.5%, CCOc1ccc(CCNC(=O)c2ccc3c(c2)N(Cc2cccc(Cl)c2)C(=O)c2ccccc2S3(=O)=O)cc1OCC -7.62%, CCOC(=O)c1scc(-c2ccc(C)cc2)c1S(=O)(=O)Nc1ccc(F)c(F)c1 -1.78%, Cn1c(=O)n(CCCc2ccccc2)c(=O)c2c1nc1n2CCN1c1ccccc1 8.85%, CCN(Cc1ccccc1)C(=O)CCS(=O)(=O)c1ccc2c(c1)oc(=O)n2C -12%, COc1ccc2c(c1)c(=O)c(C(=O)c1ccc(Cl)cc1)cn2CC(=O)Nc1ccc2c(c1)OCO2 -12.4%, CCc1ccc(N2C(=O)CS(=O)(=O)C23C(=O)N(Cc2ccccc2F)c2ccccc23)cc1 (stereo not given) -23%, Cc1sc(NC(=O)COc2ccc(C(C)(C)C)cc2)c(C(=O)OC(C)C)c1C -1.17%, CCOc1cc(C2c3c(oc4ccccc4c3=O)C(=O)N2Cc2ccccc2Cl)ccc1O (stereo not given) -15.6%, Cc1cc(-c2nc3ccccc3s2)ccc1NC(=O)c1cc(Cl)ccc1Cl 7.33%, Cc1ccc(-c2noc(C3CC(=O)N(c4ccc5c(c4)OCCO5)C3)n2)cc1 (stereo not given) -15.8%, COc1ccc(CNC(=O)C2CCN(S(=O)(=O)c3cn(C)cn3)CC2)cc1 -11.9%, COc1ccc(NC(=O)N(Cc2ccco2)C2CCN(C(C)=O)CC2)c(OC)c1 0.198%, COc1cc(-c2noc(-c3cc(C)[nH]n3)n2)cc(OC)c1OC -16.6%, COc1cccc(NC(=O)C2CCN(S(=O)(=O)c3cc(-c4noc(C)n4)ccc3C)CC2)c1 -8.22%, CCN1CCN(C(=O)c2cnn(-c3cccc(C)c3)c2C2CCN(C(=O)OC(C)(C)C)CC2)CC1 1.54%, COc1cccc(CNC(=O)c2cccn2-c2nnc(N3CCCC3)s2)c1 -18.7%, Cc1onc(-c2c(Cl)cccc2Cl)c1C(=O)N[C@@H]1C(=O)N2[C@@H]1SC(C)(C)[C@@H]2C(=O)O -20.4%, CCOc1ccc(NC(=O)c2cn3c4c(ccc(Cl)c4c2=O)OC(C)C3)cc1 (stereo not given) -19.1%, COc1ccc(C2CC(=O)c3c([nH]c(C(=O)OCCOc4ccccc4)c3C)C2)cc1OC (stereo not given) -12.9%, CCn1cc(C(=O)N2CCN(c3ccccc3)CC2)c(=O)c2cc(S(=O)(=O)N3CCC(C)CC3)ccc21 -11.4%, COc1ccccc1CNC(=O)c1cc(-c2ccccc2)n[nH]1 -8.01%, O=C(CCS(=O)(=O)c1nc(-c2cccs2)cc(C(F)(F)F)n1)Nc1cccc(O)c1 -12.6%

Source: PubChem BioAssay AID1159614 (National Center for Advancing Translational Sciences (NCATS), 2016)
